Test results published in PubChem BioAssay AID493208 (National Center for Advancing Translational Sciences (NCATS), 2011).
Out of some 44,000 compounds screened, about 340 (0.77%) were called active. About 5% were inconclusive and are not listed. The call rests on the fitted dose curve; in most records, active means well fitted inhibition curve with a large enough effect; inconclusive means small, poorly fitted or top-dose-only effect; inactive means flat fitted curve, though single readings scatter. The list shows a part of the results.

Assay: Acumen qHTS Assay for Inhibitors of the mTORC1 Signaling Pathway in MEF (Tsc2-/-, p53-/-) Cells: Sytravon;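 further: plate controls were DMSO for no effect and rapamycin for full effect; nearly all actives have a fitted effect of over 50% in size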
Conditions: phospho-rpS6 immunofluorescence/PI, 24 h; series mostly up to 38.3 µM; activity change, negative = inhibition: at the top concentration
Summary of the method: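 Tsc2-/-, p53-/- MEFs (empty-vector stable line) in DMEM + 10% FBS were treated with compounds 24 h at 37 degree Celsius, fixed, and immunostained for phospho-rpS6 (Alexa-488) with propidium iodide counterstain. Laser-scanning cytometry gave % positive cells, normalized against 7.5 nM rapamycin and DMSO.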

Activity change, negative = inhibition, inactive:
O=C(NCC(c1cccnc1)N1CCc2ccccc21)c1cccc(C(F)(F)F)c1 (stereo not drawn) -8.51%, COc1ccc(C(=O)N(Cc2cc(OC)c(OC)c(OC)c2)CC2CCCO2)cc1 (stereo not drawn) -0.847%, CCCNC(=O)CSc1nc2nc(C)c(Cc3ccccc3Cl)c(C)n2n1 5.21%, Cc1ccc(-c2noc(-c3nnn(CC(=O)Nc4cc(C)cc(C)c4)c3N)n2)cc1 -1.83%, COc1ccc(CCCc2nnc(SCC(=O)Nc3ccc(C)cc3C)o2)cc1 2.14%, CCN(CC)S(=O)(=O)c1cc(-c2onc(C)c2C)ccc1OC 2.49%, O=C(NCc1cccc(Cl)c1)C1CCN(C(=O)c2sccc2-n2cccc2)CC1 0.425%, CCc1ccc(C(=O)c2cn(CC(=O)Nc3ccc(OC)cc3OC)c3ccc(CC)cc3c2=O)cc1 2.44%, COc1cccc(C(=O)Nc2cccc(C(=O)OCc3cc(=O)n4nc(C(C)C)sc4n3)c2)c1 16.3%, CC(=O)N1CCC(N(C(=O)Nc2c(F)cccc2F)C(C)C)CC1 2.81%, Cc1ccc(N(C)C(=O)c2cnc(N3CCOCC3)c3ccccc23)cc1C -2.14%, CCOc1ccc(-c2nc(SCC(=O)NCCOC)c(-c3ccc(OC)c(OC)c3)[nH]2)cc1 -9.34%, CSc1nc2sc3c(c2c(=O)n1-c1ccc(F)c(Cl)c1)CCN(C(C)=O)C3 5.77%, Cc1cc(C)cc(NC(=O)CSc2nc(-c3cccc(Cl)c3)nc3c2Cc2c(CO)cnc(C)c2O3)c1 -4.82%, CCOC(=O)NC1(C(F)(F)F)NC(=O)N(c2ccc(C)c(C)c2)C1=O (stereo not drawn) 3%, COc1ccc(S(=O)(=O)NCCc2csc(-c3ccc(F)cc3)n2)cc1 -15.6%, Cc1cc(C)cc(OCC(=O)Nc2ccc(S(=O)(=O)Nc3onc(C)c3C)cc2)c1 1.19%, COc1ccc(-n2nc(C(=O)Nc3cccc(C(F)(F)F)c3)c3c4ccccc4n(C)c3c2=O)cc1 -0.109%, Cc1nn(CC(=O)NCc2ccccc2Cl)c(=O)c2nn(-c3ccccc3)c(C)c12 -1.2%, Cc1ccccc1NC(=O)CSC1=Nc2ccccc2C2=NC(CCC(=O)NCc3ccccc3)C(=O)N12 (stereo not drawn) 8.54%, Cc1nc(CC(=O)Nc2ccc(N(C)C)cc2)cs1 -1.08%, Cc1cc(C)cc(N2C(=O)N(CC(=O)c3ccc(Br)cc3)c3ccccc3S2(=O)=O)c1 4.84%, O=S(=O)(NCc1cccc(Br)c1)c1ccc(-c2cc(C(F)(F)F)on2)s1 0%, COc1ccccc1CNC(=O)CN1C(=O)COc2ccc(S(=O)(=O)N3CCCCC3)cc21 0.835%, CCN(CC)C(=O)c1sc2c(c1C)c(=O)n(-c1ccc(Cl)c(Cl)c1)c(=O)n2Cc1cc(=O)n2c(C)cccc2n1 -2.92%, COC(=O)CN1C(=O)CSc2ccc(S(=O)(=O)N3CCOCC3)cc21 1.68%, COC(=O)c1sccc1S(=O)(=O)N(CC(=O)NCc1ccc(C)cc1)c1ccc(Cl)cc1 3.16%, COc1ccc(C(=O)Nc2ccc3nc(SCC(=O)N4CCCc5ccccc54)sc3c2)cc1 0%, CCCCn1cc(S(=O)(=O)c2ccc(OC)cc2)c(=O)c2cc(F)c(N3CCCC3)cc21 5.62%, Cc1ccc(-c2nc(C)c(CCNS(=O)(=O)c3ccccc3F)s2)cc1 -1.8%, Cc1cccc(NC(=O)N2CCC(CN3CCc4ccccc4C3)CC2)c1C -13.6%, CCOc1ccc(NC(=O)Cn2cc(C(=O)c3ccc(C)c(C)c3)c(=O)c3cc4c(cc32)OCCO4)cc1 -15.9%, CCOC(=O)c1cccc(NC(=O)CN2C(=O)CC(C)(C)Sc3ccccc32)c1 -2.58%, CCN(C(=O)c1oc2ccc(S(=O)(=O)N3CCCCCC3)cc2c1C)c1ccccc1 -14.9%, O=C1C(=O)N(C2CCN(S(=O)(=O)c3ccc(F)cc3)CC2)CCN1Cc1ccccc1 0%, Cc1cccc(C)c1OCc1nc2c3cnn(-c4cccc(F)c4)c3ncn2n1 -1.1%, Cc1ccc(-n2ncc(C(=O)NCCN3CCc4ccccc4C3)c2C2CCN(C(=O)OC(C)(C)C)CC2)cc1 0%, COc1ccc(CCNC(=O)CCCn2c(=O)c3ccccc3n(Cc3ccccc3C)c2=O)cc1OC -15.6%, CCOC(=O)c1cc(S(=O)(=O)N2CCN(c3ccc(OC)cc3)CC2)[nH]n1 1.85%, Cc1ccc(Nc2c(-c3ccc(N4CCOCC4)cc3)nc3ncccn23)cc1 15.9%, Cc1ccc(CNC(=O)c2c3c(nc4ccccc24)C(=O)N(C2CCCCC2)C3)cc1 4.06%, COc1ccc(Cl)cc1NC(=O)CSc1nccn1Cc1ccco1 3.19%, COc1cccc(NC(=O)CSc2nc3ccccc3nc2N2CCOCC2)c1 -6.71%, CCc1ccc(CN2C(=O)c3ccccc3C2C(=O)NCCc2ccc(OC)c(OC)c2)cc1 (stereo not drawn) 1.83%, CN(CC(=O)Nc1cccc(C(F)(F)F)c1)S(=O)(=O)c1ccc2[nH]c3c(c2c1)CCCC3 -5%, Cc1csc2nc(COC(=O)c3ccccc3NC(=O)c3ccc(F)cc3)cc(=O)n12 3.57%, COc1ccc(NC(=O)c2cc3c(=O)[nH]c4ccccc4c3n2C)cc1Cl 0.808%, CCCN(C(=O)CCc1nc(-c2ccccc2F)no1)c1ccc(CC)cc1 -1.69%, Cc1ccc(C)c(N2CCN(C(=O)c3ccc(CS(=O)(=O)c4ccc(Br)cc4)o3)CC2)c1 -13.9%, CCOc1cc2[nH]c(=O)n(Cc3ccc(C(=O)NCCN(CC)CC)cc3)c(=O)c2cc1OCC -1.86%, COc1ccc(CC(=O)NCc2nc3cccnc3n2Cc2ccc(F)cc2)cc1OC -2.42%, Cc1ccc(S(=O)(=O)Nc2cc3c(cc2NCc2ccccc2)n(C)c(=O)n3C)c(C)c1 -0.101%, O=C(CCc1nc(CN2CCN(S(=O)(=O)c3ccc(Cl)cc3)CC2)no1)N1CCCCC1 -5.58%, Cc1cccc(Cn2c(SCc3ccc(C(=O)NCCc4ccccc4)cc3)nc3ccncc32)c1 1.44%, CCc1cccc(C)c1NC(=O)Cn1ccn(-c2cccc(OC)c2)c(=O)c1=O -4.4%, COc1ccc(-c2cc3nc(C)c(CCC(=O)Nc4ccccc4C(C)=O)c(C)n3n2)c(OC)c1 -5.33%, COc1ccc(-n2c(=O)c3c(c4cc(OC)ccc4n3C)n(Cc3cccc(OC)c3)c2=O)cc1 -1.32%, O=C(CCC1N=C2c3ccccc3N=C(SCc3ccc(F)cc3)N2C1=O)NCc1ccc(F)cc1 (stereo not drawn) 0.54%
